Measurements taken from patent US11178870B2 (priority 2017, dated 2021).

How the values were obtained:
Phytophthora infestans = format: in vivo; details: Table 7, Test F
[1] = system: Colletotrichum orbiculare; details: 250 ppm sprayed (2.5 ml/pot) before inoculation; assessed 6 to 10 days after inoculation
Magnaporthe grisea = format: in vivo; details: Table 7, Test A

Row | Compound | control value, Test F (late blight on tomato) (Phytophthora infestans) | control value, Test H (anthracnose on cucumber) [1] | control value, Test A (blast on rice) (Magnaporthe grisea)
1 | CCn1c(-c2ccc(F)cc2Br)c(-n2cc(C)cn2)cc(Br)c1=O [Compound 332] | L (L shows the control value of 50% or less) | H (H shows the control value more than 50%) | –
2 | CCn1c(-c2ccc(OC)cc2Br)c(-n2cc(F)cn2)cc(Cl)c1=O [Compound 355] | L (L shows the control value of 50% or less) | H (H shows the control value more than 50%) | H (H shows the control value more than 50%)
